The campaign covered roughly 39,000 compounds. About 220 (0.56%) showed activity. The list shows a part of the results.
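Further: static incubation at 37 °C against the wild-type strain, values averaged over two biological replicates.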

For the assay, the system named is Escherichia coli K-12 BW25113. Briefly: relative growth (OD600 normalised to plate interquartile mean) (fraction); higher = less growth inhibition, active = 0.2 or less. The settings on record: 50 µM; LB; incubation time: overnight (16-24 h).
For the molecule `COc1ccc(CN2C[C@H](C)[C@H](OC)CN(C)C(=O)c3cc(NC(=O)c4nc5ccccc5s4)ccc3OC[C@@H]2C)cc1`, the relative growth was inactive: 1.
In the case of `COc1ccc(CN(C)C[C@H]2OCCCC[C@@H](C)Oc3ccc(NS(=O)(=O)c4ccc(C)cc4)cc3C(=O)N([C@@H](C)CO)C[C@@H]2C)cc1`, the relative growth is inactive: 0.979.
Take `CN(C)Cc1cn(CC[C@@H]2CC[C@@H](NS(=O)(=O)c3ccccc3)[C@H](CO)O2)nn1`: the relative growth is inactive: 1.05.
For the molecule `COc1ccc(S(=O)(=O)N[C@H]2CC[C@H](CCNC(=O)CN3CCOCC3)O[C@@H]2CO)cc1`, the relative growth is inactive: 0.98.
For `C[C@H]1CN([C@@H](C)CO)C(=O)c2cccc(NC(=O)c3ccc(-c4nccs4)cc3)c2O[C@H]1CN(C)S(=O)(=O)c1ccc(Cl)cc1` the value was inactive: 0.99.
Turning to `C[C@H]1CN([C@@H](C)CO)C(=O)c2cc(-c3ccc(C(=O)N(C)C)cc3)cnc2O[C@@H]1CN(C)C(=O)C1CC1`, the relative growth was inactive: 1.02.
Then `C[C@@H]1CN([C@@H](C)CO)C(=O)c2cc(NC(=O)Nc3cccc4ccccc34)ccc2O[C@H]1CN(C)C(=O)Nc1ccc(F)cc1`, with inactive: 1.07; and `CN(C)CCCNC(=O)C[C@@H]1CC[C@@H]2[C@H](COC[C@@H](O)CN2S(=O)(=O)c2ccc(Cl)cc2)O1`, with inactive: 1.01.
Consider `COc1ccc(NC(=O)Nc2ccc3c(c2)C(=O)N([C@H](C)CO)C[C@H](C)[C@H](CN(C)C(=O)Nc2cccc4ccccc24)O3)cc1`, for which the relative growth was inactive: 1.01.
For the molecule `COc1ccc(NC(=O)N(C)C[C@H]2Oc3ccc(NC(=O)Nc4ccc(C(F)(F)F)cc4)cc3CC(=O)N([C@@H](C)CO)C[C@@H]2C)cc1`, the relative growth is inactive: 1.02.
For the molecule `Cc1noc(C)c1NC(=O)N(C)C[C@H]1Oc2ccc(NC(=O)Nc3ccc(C(F)(F)F)cc3)cc2CC(=O)N([C@@H](C)CO)C[C@H]1C`, the relative growth was inactive: 0.985.
Then `C[C@@H]1CCCCO[C@@H](CN(C)C(=O)NC2CCCCC2)[C@@H](C)CN([C@H](C)CO)C(=O)c2cc(NC(=O)Cc3ccccc3)ccc2O1`, with inactive: 1.01; and `C[C@H]1CN([C@@H](C)CO)C(=O)Cc2cc(NC(=O)CCN3CCOCC3)ccc2O[C@H]1CN(C)S(=O)(=O)c1ccccc1`, with inactive: 1.01.
For `CC(C)NC(=O)N1C[C@H]2[C@H](C(=O)N(C)Cc3ccccn3)CCS(=O)(=O)[C@H]2C1`, the relative growth was inactive: 1.01.
Consider `COC(=O)[C@H](Cc1ccc(-n2cc(-c3ccc(C(=O)NO)cc3)nn2)cc1)N1CC2=C[C@H]([C@@H](O)Cc3ccccc3)n3c(=O)n(C)c(=O)n3[C@@H]2[C@@H](C2CC2)O1`, for which the relative growth was inactive: 0.989.
Consider `OC[C@H]1O[C@H](Nc2ccccc2)C[C@@H]1O`, for which the relative growth is inactive: 0.99.
`C[C@H](CO)N1C[C@H](C)[C@H](CN(C)Cc2ccc(-c3ccccc3)cc2)Oc2ccc(NC(=O)Nc3cccc4ccccc34)cc2C1=O`: the relative growth was inactive: 1.02.
As for `COc1ccc2c3c([nH]c2c1)[C@@H](CO)N(C[C@]13CN(Cc2ccccc2Cl)C1)S(=O)(=O)c1cn(cn1)C`, the relative growth was inactive: 1.01.
As for `C[C@H](CO)N1C[C@H](C)[C@H](CN(C)S(=O)(=O)c2cn(C)cn2)Oc2ccc(NC(=O)NC3CCCCC3)cc2CC1=O`, the relative growth was inactive: 1.03.
`C[C@@H]1CN([C@H](C)CO)S(=O)(=O)c2ccc(-c3ccncc3)cc2O[C@@H]1CN(C)Cc1ccc(Oc2ccccc2)cc1`: the relative growth is inactive: 1.01.
Turning to `C[C@@H]1CN([C@@H](C)CO)C(=O)Cc2cc(NC(=O)c3ccncc3)ccc2O[C@H]1CN(C)S(C)(=O)=O`, the relative growth was inactive: 0.971.
On to `COc1cccc(S(=O)(=O)N(C)C[C@H]2OCc3cnnn3CCCC(=O)N([C@@H](C)CO)C[C@H]2C)c1`, for which the relative growth is inactive: 1.02.
On to `C[N+]1(C)CCC(OC(=O)C(O)(c2ccccc2)C2CCCC2)C1.[Br-]` (stereo not given), for which the relative growth was inactive: 0.933.
Turning to `COc1ccc(COC[C@@]23Oc4ccccc4[C@@H](NC(=S)N2C)[C@@H]3CO[Si](C)(C)C(C)(C)C)cc1`, the relative growth is inactive: 1.
Take `N=c1c(C(=O)NC[C@H]2CCCO2)cc2c(=O)n3ccccc3nc2n1CCCN1CCOCC1`: the relative growth is inactive: 0.989.
As for `COc1ccc2c3c([nH]c2c1)[C@@H](CO)N(Cc1ccccc1)C[C@]13CCN(CC1)C(=O)Nc1cccc(c1)F`, the relative growth is inactive: 0.992.
Turning to `NCCN1CCO[C@@H](CC(=O)Nc2cc(Cl)cc(Cl)c2)C1=O`, the relative growth is inactive: 0.914.
For `O=c1[nH]cnc2c1ncn2C1OC(CO)C(O)C1O` (stereo not given) the value was inactive: 1.08.
Take `CC1C(=O)CCC1=O`: the relative growth was inactive: 1.04.
`O=C(C[C@H]1C=C[C@@H](NC(=O)CN2CCOCC2)[C@H](CO)O1)NCCc1ccncc1`: the relative growth is inactive: 0.978.
With `C[C@H](C(=O)O)N1C(=O)CCC1=O`, the relative growth was inactive: 0.956.
Turning to `O=C(CN1CCOCC1)N[C@@H]1CC[C@H](CCNC(=O)C2CCC2)O[C@@H]1CO`, the relative growth is inactive: 0.989.
As for `C[C@@H]1CCCCO[C@@H](CN(C)Cc2ccc(C(F)(F)F)cc2)[C@H](C)CN([C@H](C)CO)C(=O)c2cc(NS(C)(=O)=O)ccc2O1`, the relative growth was inactive: 0.994.
With `COCCNC(=O)C[C@@H]1CC[C@H](NS(=O)(=O)c2ccc(C)cc2)[C@@H](CO)O1`, the relative growth is inactive: 0.983.
As to `C[C@@H]1CCCCO[C@H](CN(C)C(=O)Nc2ccccc2)[C@H](C)CN([C@H](C)CO)C(=O)c2cc(NS(=O)(=O)c3cccs3)ccc2O1`, the relative growth is inactive: 1.03.
Consider `C=CC[C@H](CC(=O)N[C@@H](CO)Cc1ccccc1)C(=O)N[C@H](COC(=O)[C@@H](CC=C)Cc1ccc(F)cc1)Cc1c[nH]c2ccccc12`, for which the relative growth is inactive: 1.04.
`C[C@@H]1CN([C@H](C)CO)C(=O)c2cc(NS(=O)(=O)c3ccc(F)cc3)ccc2O[C@@H](C)CCCCO[C@@H]1CN(C)Cc1ccccc1`: the relative growth is inactive: 0.913.
With `Fc1ccccc1-c1nc2ccn(Cc3ccc(-c4ccc(C(F)(F)F)cc4C(F)(F)F)nn3)cc-2n1`, the relative growth is inactive: 1.01.
With `COc1ccc(S(=O)(=O)Nc2cccc3c2O[C@@H](CN(C)C(=O)Nc2c(C)noc2C)[C@H](C)CN([C@@H](C)CO)C3=O)cc1`, the relative growth was inactive: 1.
For `CCCCC(=O)OC1(C(=O)CO)CCC2C3CCC4=CC(=O)CCC4(C)C3C(O)CC21C` (stereo not given) the value was inactive: 1.07.
